Results as given in PubChem BioAssay AID1768 (National Center for Advancing Translational Sciences (NCATS), 2009).
In all, about 270,000 compounds went through this assay and about 620 (0.23%) were called active. The inconclusive results got no clear call from the source; some entries with a clear call stand among them for comparison. Calls come from the whole dose curve; as a rule, active = well fitted inhibition curve with a large enough effect in the polarisation, with a control signal flat (not every such curve was filed as active); inconclusive = small, poorly fitted or top-dose-only effect, or effect the other way, or a change in a side signal; inactive = no such curve, though single readings can be large or run the other way; the % refers to the polarisation. Potencies beside an inconclusive call are fits to weak or partial responses and may not hold up. A note “side channel” means that the fit belongs to a control or component signal, not to the main read-out.

Each molecule was assayed against Menin (Homo sapiens) (UniProt O00255) (assay: qHTS Assay for Inhibitors Targeting the Menin-MLL Interaction in MLL Related Leukemias: Competition With Texas Red Labeled MLL-derived Mutant Peptide). Settings: fluorescence polarization; FP activity change, negative = inhibition: at 61.6 µM (top of the series).
UniProt O00255, sequence (O00255 whole entry, looked up): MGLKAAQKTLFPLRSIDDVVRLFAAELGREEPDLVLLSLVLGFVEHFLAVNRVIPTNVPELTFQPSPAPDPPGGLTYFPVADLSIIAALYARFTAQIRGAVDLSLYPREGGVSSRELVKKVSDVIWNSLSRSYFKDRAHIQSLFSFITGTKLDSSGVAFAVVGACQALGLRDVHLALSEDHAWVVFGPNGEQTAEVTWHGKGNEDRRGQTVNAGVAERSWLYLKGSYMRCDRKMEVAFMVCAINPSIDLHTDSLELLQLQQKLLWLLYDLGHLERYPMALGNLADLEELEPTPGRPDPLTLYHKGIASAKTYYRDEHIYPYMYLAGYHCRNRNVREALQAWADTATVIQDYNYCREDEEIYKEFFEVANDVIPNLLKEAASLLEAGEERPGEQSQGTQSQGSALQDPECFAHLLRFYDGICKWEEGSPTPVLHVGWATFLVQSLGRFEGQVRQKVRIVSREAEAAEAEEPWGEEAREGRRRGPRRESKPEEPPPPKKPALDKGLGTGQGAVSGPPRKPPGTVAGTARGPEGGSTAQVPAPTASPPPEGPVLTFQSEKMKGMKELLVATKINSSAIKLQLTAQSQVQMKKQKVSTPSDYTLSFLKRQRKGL
Potency is the fitted concentration of half-maximal effect; tags give direction and shape of the fitted curve or compound fluorescence and quenching.
Throughout, for FP activity change, negative = inhibition: % of control where 0% means no effect.

| Compound | Potency | FP activity change, negative = inhibition |
| --- | --- | --- |
| O=C(Nc1ccc(C(=O)c2ccccc2)cc1)c1ccccc1 | inconclusive: 20 µM [quencher, side channel, partial curve] | – |
| OC(CNCC1(N2CCCCC2)CCCCC1)COc1ccc(Cl)cc1Cl (stereo not given) | inconclusive: 6.31 µM [fluorescent, side channel, partial curve] | – |
| c1cc2c(cc1Oc1nc(N3CCOCC3)nc(N3CCOCC3)n1)OCO2 | inconclusive: 3.16 µM [inhibitor, full curve, poor fit] | – |
| C=CCSc1nc2sc3c(c2c(=O)n1-c1ccc(C)cc1)CCN(C)C3 | inconclusive: 15.8 µM [fluorescent, side channel, partial curve] | – |
| CCOC(=O)c1sc(N=NC2=C(O)CCCC2=O)c(C(=O)OCC)c1C | inconclusive: 14.1 µM [quencher, side channel, partial curve] | – |
| CN(C)C(=O)c1ccc(-c2ccc3ncnc(NCc4cccnc4)c3c2)cc1 | inconclusive: 39.8 µM [inhibitor, single point] | – |
| O=C(NC(=S)Nc1nc2ccccc2s1)c1cccs1 | inconclusive: 31.6 µM [quencher, side channel, single point] | – |
| O=C(CC12CC3CC(CC(C3)C1)C2)NC(=S)Nc1ccc(CN2CCOCC2)cc1 | – | inactive: -10.7% |
| Fc1ccc(Nc2ccnc(Nc3ccc(F)cc3)n2)cc1 | inconclusive: 20 µM [quencher, side channel, partial curve] | – |
| CCOc1ccccc1OCCCC(=O)Nc1sccc1C(N)=O | inconclusive: 39.8 µM [quencher, side channel, single point] | – |
| COC(=O)c1ccc2c(c1)C(=O)N(C1CCCCC1)C2=O | – | inactive: -6.68% |
| Cn1cccc1/C=C1\SC(=O)N(c2ccccc2)C1=O | inconclusive: 39.8 µM [inhibitor, single point] | – |
| O=C(COC(=O)c1ccc(CSc2ccc(Cl)cc2)cc1)Nc1ccccc1 | inconclusive: 28.2 µM [inhibitor, single point] | – |
| c1ccc(-c2ccc(-c3cnc4n3CCCCC4)cc2)cc1 | inconclusive: 15.8 µM [fluorescent, side channel, partial curve] | – |
| COCCN1C(=O)N[C@@H](c2cccc(C(F)(F)F)c2)C(C(C)=O)=C1C | – | inactive: -8.69% |
| Cc1ccc(-c2csc(C3=C(O)CN(NC(=O)c4ccc([N+](=O)[O-])cc4)C3=N)n2)cc1 | inconclusive: 14.1 µM [quencher, partial curve] | – |
| Cc1ccc(NC(=O)Cn2cc(C=O)c3ccccc32)cc1C | inconclusive: 31.6 µM [fluorescent, side channel, single point] | – |
| CO[C@@H]1COC(=O)[C@H](C)NC(=O)C/C=C\[C@@H](C)[C@H](OC)COC(=O)[C@H](C)NC(=O)C/C=C\[C@H]1C | – | inactive: 4.57% [at 11.7 µM] |
| Cc1c(N=Cc2ccc[nH]2)c(=O)n(-c2ccccc2)n1C | – | inactive: 4.37% |
| COc1ccccc1N1C(=O)CC(Nc2ccc(N3CCOCC3)cc2)C1=O (stereo not given) | – | inactive: 3.32% |

| Compound | Potency | FP activity change, negative = inhibition |
| --- | --- | --- |
| O=C(CC12CC3CC(CC(Br)(C3)C1)C2)OCCN1CCCCC1 | inconclusive: 10 µM [inhibitor, partial curve] | – |
| CC(C)(C)c1ccc(-c2nc(C=O)c3ccccn23)cc1 | inconclusive: 2.82 µM [inhibitor, partial curve] | – |
| Cc1occc1-c1nnc(SCC(=O)c2cc3ccccc3oc2=O)o1 | inconclusive: 28.2 µM [quencher, side channel, single point] | – |
| C=CCn1c(=O)/c(=C2/Sc3ccccc3N2CC)s/c1=C1/C(=O)NN=C1C | inconclusive: 39.8 µM [fluorescent, side channel, single point] | – |
| O=C(COc1cccc(NC(=O)c2ccccc2)c1)c1ccccc1 | inconclusive: 31.6 µM [quencher, side channel, partial curve] | – |
| O=C(CNC(=O)c1cccc(Br)c1)N/N=C/c1ccc2c(c1)OCO2 | inconclusive: 6.31 µM [quencher, side channel, single point] | – |
| CCOC(=O)c1cc(-c2ccccc2)n(CCC(=O)N2CCN(c3ccc(OC)cc3)CC2)c1C | inconclusive: 39.8 µM [fluorescent, side channel, single point] | – |
| COc1ccc(C)cc1NC(=O)CN1CCN(c2ccccn2)CC1 | inconclusive: 31.6 µM [fluorescent, side channel, partial curve] | – |
| COc1ccc(NC(=O)C2CCCN(c3ncccn3)C2)cc1 (stereo not given) | – | inactive: 2.56% |
| NS(=O)(=O)c1ccc(NC(=S)Nc2cc(Cl)c(Cl)cc2Cl)cc1 | – | inactive: 3.11% |
| COc1cc(/C=N/NC(=O)c2cccnc2)ccc1OC(=O)c1ccc([N+](=O)[O-])cc1 | inconclusive: 22.4 µM [quencher, side channel, single point] | – |
| CC(O)/C=C/c1cccc[n+]1C (stereo not given) | – | inactive: 0.635% |
| COc1ccc(C(=O)n2cc(C(=O)c3cc(C)ccc3O)cn2)cc1OC | – | inactive: -5.53% |
| Cc1ccc(NS(=O)(=O)c2ccc(OCC(=O)Nc3cccc([N+](=O)[O-])c3)c(C)c2)cc1 | inconclusive: 8.91 µM [quencher, side channel, partial curve] | – |
| NC(=O)c1ccc(NC(=O)CCC(=O)c2cccs2)cc1 | inconclusive: 22.4 µM [quencher, side channel, single point] | – |
| NC(=O)c1ccccc1NC(=O)/C=C/c1ccc(Cl)cc1 | inconclusive: 7.08 µM [quencher, side channel, partial curve] | – |
| COc1ccc(CCC(C)NCc2ccc(C(F)(F)F)cc2)cc1 (stereo not given) | inconclusive: 39.8 µM [inhibitor, single point] | – |
| Cc1cccc(NC(=O)CSc2cccc3cccnc23)c1 | – | inactive: 3.38% |
| O=C(NCc1ccc(-c2nc3ccccc3s2)cc1)c1ccc(Br)o1 | inconclusive: 39.8 µM [inhibitor, single point] | – |
| COc1cc(/C=C/c2ccc(O)cc2)cc(OC)c1 | inconclusive: 15.8 µM [quencher, side channel, partial curve] | – |
